Measurements published in US9956244B2, “Biomarker Hsp90 for predicting effect of a c-Met inhibitor” (Samsung Electronics Co., Ltd., priority 2014, dated 2018).

Assays:
Settings in all cases: rank among the four antibodies selected in Reference Example 1.7
c-Met [1] = target: T1, c-Met (Homo sapiens, UniProt P08581); assay: Affinity for c-Met; type: binding
Akt phosphorylation = assay: Akt phosphorylation; type: cell-based
c-Met [2] = target: T1, c-Met; assay: c-Met degradation; type: cell-based

T1 sequence (P08581 25-1390): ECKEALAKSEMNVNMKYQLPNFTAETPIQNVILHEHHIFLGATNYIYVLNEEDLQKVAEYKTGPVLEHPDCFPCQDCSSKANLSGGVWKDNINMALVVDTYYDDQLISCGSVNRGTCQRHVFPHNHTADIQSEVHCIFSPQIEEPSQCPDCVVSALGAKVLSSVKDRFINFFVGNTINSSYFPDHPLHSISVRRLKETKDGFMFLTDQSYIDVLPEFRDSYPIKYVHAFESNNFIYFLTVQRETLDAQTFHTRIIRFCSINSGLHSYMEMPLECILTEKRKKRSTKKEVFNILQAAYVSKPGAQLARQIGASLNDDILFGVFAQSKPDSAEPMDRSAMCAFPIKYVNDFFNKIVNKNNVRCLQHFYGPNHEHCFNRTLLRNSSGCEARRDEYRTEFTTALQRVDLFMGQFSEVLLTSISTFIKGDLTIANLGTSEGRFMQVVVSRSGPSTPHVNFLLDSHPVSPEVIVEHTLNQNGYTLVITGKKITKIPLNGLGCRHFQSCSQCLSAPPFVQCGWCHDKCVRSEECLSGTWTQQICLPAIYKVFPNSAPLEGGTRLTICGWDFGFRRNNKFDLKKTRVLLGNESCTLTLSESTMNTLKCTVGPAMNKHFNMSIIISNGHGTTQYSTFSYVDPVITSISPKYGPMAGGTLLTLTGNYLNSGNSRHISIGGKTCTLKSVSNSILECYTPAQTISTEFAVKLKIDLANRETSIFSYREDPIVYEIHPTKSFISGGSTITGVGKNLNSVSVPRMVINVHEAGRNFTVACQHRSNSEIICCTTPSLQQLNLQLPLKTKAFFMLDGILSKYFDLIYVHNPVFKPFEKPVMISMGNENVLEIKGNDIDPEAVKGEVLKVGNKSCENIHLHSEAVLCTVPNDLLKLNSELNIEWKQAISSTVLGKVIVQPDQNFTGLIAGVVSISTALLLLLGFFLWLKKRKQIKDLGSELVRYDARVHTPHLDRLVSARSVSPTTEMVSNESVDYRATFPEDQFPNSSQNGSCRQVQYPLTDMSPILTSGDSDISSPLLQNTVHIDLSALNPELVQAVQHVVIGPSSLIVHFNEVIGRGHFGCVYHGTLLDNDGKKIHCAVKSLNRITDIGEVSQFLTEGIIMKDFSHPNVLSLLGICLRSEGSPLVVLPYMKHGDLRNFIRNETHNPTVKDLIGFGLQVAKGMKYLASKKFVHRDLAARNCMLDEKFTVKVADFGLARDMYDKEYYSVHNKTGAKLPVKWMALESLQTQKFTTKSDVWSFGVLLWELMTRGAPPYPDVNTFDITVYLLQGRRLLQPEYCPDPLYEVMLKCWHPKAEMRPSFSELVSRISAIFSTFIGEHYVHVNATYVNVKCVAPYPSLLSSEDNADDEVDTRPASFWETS

- affinity for c-Met (c-Met [1]): highest
- c-Met degradation degree (c-Met [2]): lowest
B1: huAbF46-H4-A1: affinity-matured anti-c-Met antibody, L3-1 origin (antibody)
heavy: EVQLVESGGGLVQPGGSLRLSCAASGFTFTDYYMSWVRQAPGKGLEWLGFIRNKANGYTTEYSASVKGRFTISRDNSKNTLYLQMNSLRAEDTAVYYCARDNWFAYWGQGTLVTVSSASTKGPSVFPLAPSSKSTSGGTAALGCLVKDYFPEPVTVSWNSGALTSGVHTFPAVLQSSGLYSLSSVVTVPSSSLGTQTYICNVNHKPSNTKVDKKVEPKSCDCH[not shown - human IgG1 Fc]
light: DIQMTQSPSSLSASVGDRVTITCKSSQSLLASGNQNNYLAWHQQKPGKAPKMLIIWASTRVSGVPSRFSGSGSGTDFTLTISSLQPEDFATYYCQQSYSRPYTFGQGTKVEIKRTVAAPSVFIFPPSDEQLKSGTASVVCLLNNFYPREAKVQWKVDNALQSGNSQESVTEQDSKDSTYSLSSTLTLSKADYEKHKVYACEVTHQGLSSPVTKSFNRGEC
- Akt phosphorylation (Akt phosphorylation): lowest
